Data: PMC12136788
The other results are listed elsewhere or left out.

B1: chr1:29344824:29344825:+_ENSG00000159023_ENST00000356093|hu_hu|FALSE|FALSE (ssRNA)
RNA: GGGAGUUCUACAGUCCGACGAUCCACGCCAUGGAGUUCUGGGUCGUAGUCUCCCAGUUCAGACUGGAUGGUGUAAGAACCUAAUAAUGCUAAGGUUGCAAAGGAACAGGGCAGACGUCCUGCAACUAUGUCCUGCCGAAGCUGCAACAGAGGAUUGAGCAUCA
B2: 80228646_80228766_340_3pUTR_ENSG00000135338_ENST00000369846|human|control|control (ssRNA)
RNA: GGGAGUUCUACAGUCCGACGAUCCAGAUUAUUUUCUCCAGAGGAGACUAUGACAAUACUGAAAAACAUUUUCACAGUCUUCAGAUCCUGAUAAUAUUCAUUUCUGUGCAAUCUAUUUUCUCCACAAUGUAUUUGUAGACCACACAACAGAGGAUUGAGCAUCA
B3: chr7:141438946:141438947:+_ENSG00000106028_ENST00000265304|hu_mus|hu_hu_hu_mus_True|28_78 (ssRNA)
RNA: GGGAGUUCUACAGUCCGACGAUCGACGAAAUACCUGUAACACAGGUCUUCGAAACAUUCUAUUUUCUUUUCUUACAACCUAAUCUUUAGGCUUUUCCUAAAGGAAAAACCCGAGCAAGAAAAAUGAUAAAUCAAGAAACUACACAACAGAGGAUUGAGCAUCA
B4: chr12:8244378:8244379:+_ENSG00000089818_ENST00000339754|hu_mus|FALSE|FALSE (ssRNA)
RNA: GGGAGUUCUACAGUCCGACGAUCUUGCAGGGAAACAUUAAAGUCGAAGGCAUCUCCCCGAUCCGUGAAGCCGAUGCCAAUAAACGCGCUGCGCCCGGUUCCAUCCUGGAUCCUGAUCACAAAGUAGCGGCUGGAGUCUGUCACCAACAGAGGAUUGAGCAUCA
B5: chr3:47957716:47957717:-_ENSG00000047849_ENST00000395734|hu_mus|FALSE|FALSE (ssRNA)
RNA: GGGAGUUCUACAGUCCGACGAUCGUCCUUGACUGAGGUUACCUCUUCUUCUGAAAGUGGAGUCACAUUGUUAAACUCAGCCACCUUUGUUUCUGGAAGUAUAACCACGUCCUUGCCCAGAGUCACUUCUGAUUCUGGGAGUGGCAACAGAGGAUUGAGCAUCA
B6: chr1:109605286:109605287:-_ENSG00000197780_ENST00000461096|hu_mus|hu_hu_hu_mus_True|28_68 (ssRNA)
RNA: GGGAGUUCUACAGUCCGACGAUCAAGUUUCAGAGUAACAUUCAGUAACCUCUUUAAAUGCAAUUAUCCUUACUUUAAGCUAAGCAGAAUAAUAAUUUAAUACCGUAAGUAAAUACAACACAAAGCCUGAACCGCGAAAAUGGUCAACAGAGGAUUGAGCAUCA
B7: chr19:58870598:58870599:-_ENSMUSG00000025092_ENSMUST00000066285|mus_hu|FALSE|FALSE (ssRNA)
RNA: GGGAGUUCUACAGUCCGACGAUCAUCUUUGACUAAUAAUGCAUUCUGACUCCUGUUUACAUUGGUGCAUGCGAUUCUUUGCUACCCUGGCAAUUAACCAGACCUGGACUCUAAAAGCUAAACUUGGUCUAAAUAACAUUCUAACAACAGAGGAUUGAGCAUCA
B8: chr5:128440902:128440903:+_ENSG00000066583_ENST00000173527|hu_mus|hu_hu_hu_mus_True|98_98 (ssRNA)
RNA: GGGAGUUCUACAGUCCGACGAUCUUGAACGGUGCUGCCAAGACCUUUGGGGUAUUGUUCCGUUAUGAUAACUGGAAUCCCUAAGAUCCGAGCUCCUUGCAACAGUCUCUGUCCCACACUAAUGAUGUCCCCAAAGUAUUUGAUCAACAGAGGAUUGAGCAUCA
B9: chr17:87833181:87833182:-_ENSMUSG00000036438_ENSMUST00000040440|perfect_dup|FALSE|FALSE (ssRNA)
RNA: GGGAGUUCUACAGUCCGACGAUCCGGGCUUAGAUAUAGCCAGAGUAAGCCACAUGCAACAUGUUACUUCAUCAAUUUUCUAAAAUAAGGUUUAAGGACAAUGACAGUAAGAUAAGGGAAGAAAACAUGGAGGAAUGAAGUCCUCAACAGAGGAUUGAGCAUCA
B10: 151797923_151800233_626_CDS_ENSG00000178234_ENST00000430044|human|control|control (ssRNA)
RNA: GGGAGUUCUACAGUCCGACGAUCAGCUGGCAGGUCAGGUGGGUAGAACUUUUCUUUACAUGCUGCAUUCCUUGUGUCUGGCACAUCUCUGUGGUAGCCCAAGCGGUCACUGAUAAGCAUAUUAAAAGCAUGUUUCUGAUAGCCCAACAGAGGAUUGAGCAUCA
B11: chr1:94914716:94914717:-_ENSMUSG00000014602_ENSMUST00000171796|mus_mus|motif|central (ssRNA)
RNA: GGGAGUUCUACAGUCCGACGAUCAAACAGAACACAGUCUUAUAGUUAAUGUCUCAGAGGACUGUUUCAACGCCACGGACGGAUGUAUAUUAAUUAUAAGUCUGUCUAUGCUUAAAAAAAUAUUAGAACAGCGGCAAUACCCUGCAACAGAGGAUUGAGCAUCA
B12: 39051560_39051680_2368_3pUTR_ENSMUSG00000026753_ENSMUST00000028087|mouse|control|control (ssRNA)
RNA: GGGAGUUCUACAGUCCGACGAUCAUGAUAUACUUGUCCUUAUUAAUGGACAAUUAUAUAUCAAGAACUGAUCAUCACAACCCUUUAGAUAGUCAAGUUACAAACACAAAGCUGAAAUAUGGUAUGACAGACCUUCACAAGAGACAACAGAGGAUUGAGCAUCA
B13: chr10:112364898:112364899:-_ENSMUSG00000074748_ENSMUST00000099276|mus_hu|FALSE|FALSE (ssRNA)
RNA: GGGAGUUCUACAGUCCGACGAUCUUUUUCUUGGAUUUCCCAAACUGAAACUGUUAGUAUCCAGAUCUUGCACCUGACAUUUACUUGUCUCAGAGAAGCCCAUAACAGAGGUUCAGAUAUCAAAGGAGCAGUCCCACUGCAGGCCAACAGAGGAUUGAGCAUCA
B14: chr17:61910164:61910165:-_ENSG00000108604_ENST00000448276|hu_hu|FALSE|FALSE (ssRNA)
RNA: GGGAGUUCUACAGUCCGACGAUCAAGUAUAAGGCUUUGGGGACCAAGCAACAAGGAAUCCUAUCACUACAUUUAUAAGACUAAAGCUGGAGAGUAGAGGGUGACAGCAGACACUCCUCACCCCAGCCUACGUGUCUGCGGCCCCAACAGAGGAUUGAGCAUCA

What follows are binders tested against T1, UNK ZnF1-3 (human, UniProt Q9C0B0 31-174) (assay: nsRBNS (natural sequence RNA bind-n-seq); RBNS binding buffer (assumed for nsRBNS): 25 mM Tris pH 7.5, 150 mM KCl, 3 mM MgCl2, 0.01% Triton X-100, 500 ug/ml BSA, 20 U/ml SUPERase-In, 4 C; UNK is unkempt and MSI1 is Musashi-1; names of the RNAs are library labels; protein concentration not given here; high values mean tight binding).
T1 sequence: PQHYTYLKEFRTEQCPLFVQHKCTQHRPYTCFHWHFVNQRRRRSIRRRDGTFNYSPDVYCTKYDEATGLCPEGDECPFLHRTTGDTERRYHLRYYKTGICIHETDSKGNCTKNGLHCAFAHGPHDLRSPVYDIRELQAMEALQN

**Q.** Which binding signal does the source give for B1 here?
**A.** 0.657 enrichment R

**Q.** How did the binding signal turn out when B2 was run?
**A.** 0.995 enrichment R

**Q.** For B3, which binding signal is on record?
**A.** 0.181 enrichment R

**Q.** How did the binding signal turn out when B4 was run?
**A.** 1.2 enrichment R

**Q.** How did the binding signal turn out when B5 was run?
**A.** 0.482 enrichment R

**Q.** With B6 as the binder, how does the binding signal read?
**A.** 0.932 enrichment R

**Q.** How did the binding signal turn out when B7 was run?
**A.** 0.971 enrichment R

**Q.** For B8, which binding signal is on record?
**A.** 0.598 enrichment R

**Q.** B9 was tested. Which binding signal did it give?
**A.** 1.76 enrichment R

**Q.** Which binding signal does the source give for B10 here?
**A.** 1.78 enrichment R

**Q.** How did the binding signal turn out when B11 was run?
**A.** 0.983 enrichment R

**Q.** With B12 as the binder, how does the binding signal read?
**A.** 0.831 enrichment R

**Q.** Which binding signal does the source give for B13 here?
**A.** 1.34 enrichment R

**Q.** Which binding signal does the source give for B14 here?
**A.** 0.894 enrichment R
